Patent publication US9833497B2, “Human originated EGF domain proteins and use of the same” (CHENGDU SOURCEBIO LIMITED-LIABILITY COMPANY, priority 2013, dated 2017)

Experiments:
Type in all cases: cell-based
E. coli DH5α = test: Antibacterial activity: MIC and growth curve against E. coli DH5α in 96-well plate; details: minimal inhibitory concentration against E. coli DH5α, 5×10^5 CFU/mL, 37° C., judged after 8 h
Summary of the method: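 Log-phase bacteria (OD600 ~0.5) resuspended in LB at 5×10^5 CFU/mL, exposed to recombinant protein at 50, 25, 12.5 μg/mL final in triplicate, 37 °C shaking at 175 rpm. OD600 read every 30 min; MIC is lowest concentration showing no growth.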

E. coli BL21 = test: MIC against Gram-negative bacteria: E. coli BL21; details: E. coli BL21; 5×10^5 CFU/mL; 10 h cultivation at 37° C.
Summary of the method: (§1)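 First, colonies from LB agar were grown in LB at 37° C, 185 rpm, to McFarland turbidity 0.5, then centrifuged and resuspended in fresh LB. Next, wells received 5×10^5 CFU/mL bacteria plus two-fold serially diluted EGF domain protein (triplicate). Finally, plates were shaken at 37° C and the no-growth concentration taken as MIC.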

Pseudomonas aeruginosa = test: MIC against Gram-negative bacteria: Pseudomonas aeruginosa; details: Pseudomonas aeruginosa; 5×10^5 CFU/mL; 10 h cultivation at 37° C.
Summary of the method: as §1

Klebsiella pneumonia = test: MIC against Gram-negative bacteria: Klebsiella pneumonia; details: Klebsiella pneumonia; 5×10^5 CFU/mL; 10 h cultivation at 37° C.
Summary of the method: as §1

Enterobacter cloacae = test: MIC against Gram-negative bacteria: Enterobacter cloacae; details: Enterobacter cloacae; 5×10^5 CFU/mL; 10 h cultivation at 37° C.
Summary of the method: as §1

Aeromonas hydrophila = test: MIC against Gram-negative bacteria: Aeromonas hydrophila; details: Aeromonas hydrophila; 5×10^5 CFU/mL; 10 h cultivation at 37° C.
Summary of the method: as §1

Citrobacter diversus = test: MIC against Gram-negative bacteria: Citrobacter diversus; details: Citrobacter diversus; 5×10^5 CFU/mL; 10 h cultivation at 37° C.
Summary of the method: as §1

Moraxella catarrhalis = test: MIC against Gram-negative bacteria: Moraxella catarrhalis; details: Moraxella catarrhalis; 5×10^5 CFU/mL; 10 h cultivation at 37° C.
Summary of the method: as §1

Proteus mirabilis = test: MIC against Gram-negative bacteria: Proteus mirabilis; details: Proteus mirabilis; 5×10^5 CFU/mL; 10 h cultivation at 37° C.
Summary of the method: as §1

Proteus vulgaris = test: MIC against Gram-negative bacteria: Proteus vulgaris; details: Proteus vulgaris; 5×10^5 CFU/mL; 10 h cultivation at 37° C.
Summary of the method: as §1

Serratia marcescens = test: MIC against Gram-negative bacteria: Serratia marcescens; details: Serratia marcescens; 5×10^5 CFU/mL; 10 h cultivation at 37° C.
Summary of the method: as §1

PRT1350 (EEPICILPCLNGGRCVAPYQCDCPPGWTGSRCH; listed as Homo sapiens)
MIC (E. coli DH5α): 50 µg/mL | MIC against E. coli BL21 (E. coli BL21): 12.5 µg/mL | MIC against P. aeruginosa (Pseudomonas aeruginosa): 50 µg/mL | MIC against K. pneumonia (Klebsiella pneumonia): 12.5 µg/mL | MIC against E. cloacae (Enterobacter cloacae): 50 µg/mL | MIC against A. hydrophila (Aeromonas hydrophila): 25 µg/mL | MIC against C. diversus (Citrobacter diversus): 12.5 µg/mL | MIC against M. catarrhalis (Moraxella catarrhalis): 25 µg/mL | MIC against P. mirabilis (Proteus mirabilis): 50 µg/mL | MIC against P. vulgaris (Proteus vulgaris): 25 µg/mL | MIC against S. marcescens (Serratia marcescens): 12.5 µg/mL

PRT1435 (DIDECRNGACVPNSICVNTLGSYRCGPCKPGYTGDQIRGCK; listed as Homo sapiens)
MIC (E. coli DH5α): 50 µg/mL | MIC against E. coli BL21 (E. coli BL21): 25 µg/mL | MIC against P. aeruginosa (Pseudomonas aeruginosa): 12.5 µg/mL | MIC against K. pneumonia (Klebsiella pneumonia): 25 µg/mL | MIC against E. cloacae (Enterobacter cloacae): 50 µg/mL | MIC against A. hydrophila (Aeromonas hydrophila): 25 µg/mL | MIC against C. diversus (Citrobacter diversus): 12.5 µg/mL | MIC against M. catarrhalis (Moraxella catarrhalis): 50 µg/mL | MIC against P. mirabilis (Proteus mirabilis): 25 µg/mL | MIC against P. vulgaris (Proteus vulgaris): 12.5 µg/mL | MIC against S. marcescens (Serratia marcescens): 12.5 µg/mL
